# Source: the supplement of paper PMC8728848
# The other results are listed elsewhere or left out.
# B1: Pwp3 (Candida glabrata) (protein)
# chain: MGSSHHHHHHSSGLVPRGSHMASKNPVDFTTVCQFPDNFSKKPGFLATTARLGLWITGNSYKELLNYPGTFTLTTQQASTTTPNIQLRGTDLFTTIYGLTVYPLYLLVELQGYFVPTQSGMYTFSLTGSDDAAIIFIGNPSTFPCDAFKTWPQATANDITVTDSINPSRTLYMVKGVAYPLRIAYYNGLGNGVLNAAFTDPSGTKRTDWNGYIWQYDQCSTCTYK
# Assays:
# Test in all cases: glycan array binding signal (z-score within array); higher = stronger binding
# Conditions in all cases: glycan notation: IUPAC condensed, linker removed
# [1] = target: Gal(b1-3)GlcNAc(b1-2)Man(a1-3)[Gal(b1-3)GlcNAc(b1-2)Man(a1-6)]Man(b1-4)GlcNAc(b1-4)[Fuc(a1-6)]GlcNAc
# How it was run: (§1)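 The binding signal is a Z-score computed within each array and averaged over linkers. Arrays of the same protein sequence at different concentrations or buffers were also averaged together. Data originate from 3228 arrays in the Consortium for Functional Glycomics database, kept only where the protein sequence was available.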
# [2] = target: Gal(b1-3)GlcNAc(b1-2)Man(a1-3)[GlcNAc(b1-4)][Gal(b1-3)GlcNAc(b1-2)Man(a1-6)]Man(b1-4)GlcNAc(b1-4)GlcNAc
# How it was run: as §1
# [3] = target: Gal(b1-3)GlcNAc(b1-2)[Gal(b1-3)GlcNAc(b1-6)]Man(a1-6)[Gal(b1-3)GlcNAc(b1-2)Man(a1-3)]Man(b1-4)GlcNAc(b1-4)GlcNAc
# How it was run: as §1
# [4] = target: Gal(b1-3)GlcNAc(b1-3)Gal(b1-3)GlcNAc
# How it was run: as §1
# [5] = target: Gal(b1-3)GlcNAc(b1-3)Gal(b1-4)Glc
# How it was run: as §1
# [6] = target: Gal(b1-3)GlcNAc(b1-3)Gal(b1-4)GlcNAc
# How it was run: as §1
# [7] = target: Gal(b1-3)GlcNAc(b1-3)Gal(b1-4)GlcNAc(b1-2)Man(a1-3)[Gal(b1-3)GlcNAc(b1-3)Gal(b1-4)GlcNAc(b1-2)Man(a1-6)]Man(b1-4)GlcNAc(b1-4)GlcNAc
# How it was run: as §1
# [8] = target: Gal(b1-3)GlcNAc(b1-3)Gal(b1-4)GlcNAc(b1-2)[Gal(b1-3)GlcNAc(b1-3)Gal(b1-4)GlcNAc(b1-6)]Man(a1-6)[Gal(b1-3)GlcNAc(b1-3)Gal(b1-4)GlcNAc(b1-2)Man(a1-3)]Man(b1-4)GlcNAc(b1-4)[Fuc(a1-6)]GlcNAc
# How it was run: as §1
# [9] = target: Gal(b1-3)GlcNAc(b1-3)Gal(b1-4)GlcNAc(b1-3)Gal(b1-4)GlcNAc(b1-2)[Gal(b1-3)GlcNAc(b1-3)Gal(b1-4)GlcNAc(b1-3)Gal(b1-4)GlcNAc(b1-6)]Man(a1-6)[Gal(b1-3)GlcNAc(b1-3)Gal(b1-4)GlcNAc(b1-3)Gal(b1-4)GlcNAc(b1-2)Man(a1-3)]Man(b1-4)GlcNAc(b1-4)[Fuc(a1-6)]GlcNAc
# How it was run: as §1
# [10] = target: Gal(b1-3)GlcNAc(b1-3)Gal(b1-4)GlcNAc(b1-6)[Gal(b1-3)GlcNAc(b1-3)]Gal(b1-4)Glc
# How it was run: as §1
# [11] = target: Gal(b1-3)GlcNAc(b1-3)Gal(b1-4)[Fuc(a1-3)]GlcNAc
# How it was run: as §1
# [12] = target: Gal(b1-3)GlcNAc(b1-3)Gal(b1-4)[Fuc(a1-3)]GlcNAc(b1-6)[Gal(b1-3)GlcNAc(b1-3)]Gal(b1-4)Glc
# How it was run: as §1
# [13] = target: Gal(b1-3)GlcNAc(b1-3)GalNAc
# How it was run: as §1
# [14] = target: Gal(b1-3)GlcNAc(b1-6)Gal(b1-4)GlcNAc
# How it was run: as §1
# [15] = target: Gal(b1-3)GlcNAc(b1-6)GalNAc
# How it was run: as §1
# [16] = target: Gal(b1-3)GlcNAc(b1-6)[Gal(b1-3)]GalNAc
# How it was run: as §1
# Gal(b1-3)GlcNAc6S = target: Gal(b1-3)GlcNAc6S
# How it was run: as §1
# [17] = target: Gal(b1-3)[Fuc(a1-4)]GlcNAc
# How it was run: as §1
# [18] = target: Gal(b1-3)[Fuc(a1-4)]GlcNAc(b1-2)Man
# How it was run: as §1
# [19] = target: Gal(b1-3)[Fuc(a1-4)]GlcNAc(b1-2)Man(a1-3)[Gal(b1-3)[Fuc(a1-4)]GlcNAc(b1-2)Man(a1-6)]Man(b1-4)GlcNAc(b1-4)[Fuc(a1-6)]GlcNAc
# How it was run: as §1
# [20] = target: Gal(b1-3)[Fuc(a1-4)]GlcNAc(b1-3)Gal(b1-3)[Fuc(a1-4)]GlcNAc
# How it was run: as §1
# [21] = target: Gal(b1-3)[Fuc(a1-4)]GlcNAc(b1-3)Gal(b1-4)[Fuc(a1-3)]GlcNAc
# How it was run: as §1
# [22] = target: Gal(b1-3)[Fuc(a1-4)]GlcNAc(b1-6)GalNAc
# How it was run: as §1
# [23] = target: Gal(b1-3)[GlcNAc(b1-6)]GalNAc
# How it was run: as §1
# [24] = target: Gal(b1-3)[Neu5Ac(a2-6)]GalNAc
# How it was run: as §1
# [25] = target: Gal(b1-3)[Neu5Ac(a2-6)]GlcNAc(b1-4)Gal(b1-4)Glc
# How it was run: as §1
# [26] = target: Gal(b1-3)[Neu5Ac(b2-6)]GalNAc
# How it was run: as §1
# Gal(b1-4)Gal = target: Gal(b1-4)Gal
# How it was run: as §1
# [27] = target: Gal(b1-4)GalNAc(a1-3)[Fuc(a1-2)]Gal(b1-4)GlcNAc
# How it was run: as §1
# [28] = target: Gal(b1-4)GalNAc(b1-3)[Fuc(a1-2)]Gal(b1-4)GlcNAc
# How it was run: as §1
# Gal(b1-4)Glc = target: Gal(b1-4)Glc
# How it was run: as §1
# Gal(b1-4)Glc6S = target: Gal(b1-4)Glc6S
# How it was run: as §1
# Gal(b1-4)GlcNAc = target: Gal(b1-4)GlcNAc
# How it was run: as §1
# [29] = target: Gal(b1-4)GlcNAc(a1-6)Gal(b1-4)GlcNAc
# How it was run: as §1
# Gal(b1-4)GlcNAc(b1-2)Man = target: Gal(b1-4)GlcNAc(b1-2)Man
# How it was run: as §1
# [30] = target: Gal(b1-4)GlcNAc(b1-2)Man(a1-3)Man(b1-4)GlcNAc(b1-4)GlcNAc
# How it was run: as §1
# [31] = target: Gal(b1-4)GlcNAc(b1-2)Man(a1-3)[Gal(b1-4)GlcNAc(b1-2)Man(a1-6)]Man(b1-4)GlcNAc(b1-4)GlcNAc
# How it was run: as §1
# [32] = target: Gal(b1-4)GlcNAc(b1-2)Man(a1-3)[Gal(b1-4)GlcNAc(b1-2)Man(a1-6)]Man(b1-4)GlcNAc(b1-4)[Fuc(a1-6)]GlcNAc
# How it was run: as §1
# [33] = target: Gal(b1-4)GlcNAc(b1-2)Man(a1-3)[Gal(b1-4)GlcNAc(b1-2)Man(a1-6)][Gal(b1-4)GlcNAc(b1-4)]Man(b1-4)GlcNAc(b1-4)[Fuc(a1-6)]GlcNAc
# How it was run: as §1
# [34] = target: Gal(b1-4)GlcNAc(b1-2)Man(a1-3)[Gal(b1-4)GlcNAc(b1-2)Man(a1-6)][GlcNAc(b1-4)]Man(b1-4)GlcNAc(b1-4)[Fuc(a1-6)]GlcNAc
# How it was run: as §1
# [35] = target: Gal(b1-4)GlcNAc(b1-2)Man(a1-3)[GlcNAc(b1-2)Man(a1-6)]Man(b1-4)GlcNAc(b1-4)GlcNAc
# How it was run: as §1
# [36] = target: Gal(b1-4)GlcNAc(b1-2)Man(a1-3)[GlcNAc(b1-4)][Gal(b1-4)GlcNAc(b1-2)Man(a1-6)]Man(b1-4)GlcNAc(b1-4)GlcNAc
# How it was run: as §1
# [37] = target: Gal(b1-4)GlcNAc(b1-2)Man(a1-3)[Man(a1-6)]Man(b1-4)GlcNAc(b1-4)GlcNAc
# How it was run: as §1
# [38] = target: Gal(b1-4)GlcNAc(b1-2)Man(a1-6)Man(b1-4)GlcNAc(b1-4)GlcNAc
# How it was run: as §1
# [39] = target: Gal(b1-4)GlcNAc(b1-2)Man(a1-6)[GlcNAc(b1-2)Man(a1-3)]Man(b1-4)GlcNAc(b1-4)GlcNAc
# How it was run: as §1
binder,measurement,setting,value
B1,glycan array binding signal (z-score),[1],-0.435
same,glycan array binding signal (z-score),[2],-0.415
same,glycan array binding signal (z-score),[3],-0.547
same,glycan array binding signal (z-score),[4],0.247
same,glycan array binding signal (z-score),[5],-0.308
same,glycan array binding signal (z-score),[6],-0.118
same,glycan array binding signal (z-score),[7],-0.92
same,glycan array binding signal (z-score),[8],-0.274
same,glycan array binding signal (z-score),[9],0.588
same,glycan array binding signal (z-score),[10],-0.347
same,glycan array binding signal (z-score),[11],-0.318
same,glycan array binding signal (z-score),[12],-0.145
same,glycan array binding signal (z-score),[13],-0.621
same,glycan array binding signal (z-score),[14],-0.389
same,glycan array binding signal (z-score),[15],1.24
same,glycan array binding signal (z-score),[16],-0.594
same,glycan array binding signal (z-score),Gal(b1-3)GlcNAc6S,-0.176
same,glycan array binding signal (z-score),[17],-0.246
same,glycan array binding signal (z-score),[18],-0.28
same,glycan array binding signal (z-score),[19],0.025
same,glycan array binding signal (z-score),[20],0.002
same,glycan array binding signal (z-score),[21],-0.076
same,glycan array binding signal (z-score),[22],2.25
same,glycan array binding signal (z-score),[23],-0.425
same,glycan array binding signal (z-score),[24],-0.008
same,glycan array binding signal (z-score),[25],-0.089
same,glycan array binding signal (z-score),[26],0.04
same,glycan array binding signal (z-score),Gal(b1-4)Gal,-0.526
same,glycan array binding signal (z-score),[27],-0.252
same,glycan array binding signal (z-score),[28],-0.435
same,glycan array binding signal (z-score),Gal(b1-4)Glc,0.166
same,glycan array binding signal (z-score),Gal(b1-4)Glc6S,-0.95
same,glycan array binding signal (z-score),Gal(b1-4)GlcNAc,0.362
same,glycan array binding signal (z-score),[29],-0.211
same,glycan array binding signal (z-score),Gal(b1-4)GlcNAc(b1-2)Man,-0.237
same,glycan array binding signal (z-score),[30],-0.306
same,glycan array binding signal (z-score),[31],-1.15
same,glycan array binding signal (z-score),[32],-0.297
same,glycan array binding signal (z-score),[33],-0.445
same,glycan array binding signal (z-score),[34],-0.02
same,glycan array binding signal (z-score),[35],-0.096
same,glycan array binding signal (z-score),[36],0.003
same,glycan array binding signal (z-score),[37],1.3
same,glycan array binding signal (z-score),[38],-0.162
same,glycan array binding signal (z-score),[39],-0.208
